Some of the results follow. Sequences were assembled here from the parent chain. Values near 0.05 are background.

The values below come from the supplement of paper PMC12217912.

First the molecules themselves.
B1: TEV protease; numbered along this chain (parent)
chain: MGESLFKGPRDYNPISSSICHLTNESDGHTTSLYGIGFGPFIITNKHLFRRNNGTLVVQSLHGVFKVKDTTTLQQHLVDGRDMIIIRMPKDFPPFPQKLKFREPQREERICLVTTNFQTKSMSSMVSDTSCTFPSGDGIFWKHWIQTKDGQCGSPLVSTRDGFIVGIHSASNFTNTNNYFTSVPKNFMELLTNQEAQQWVSGWRLNADSVLWGGHKVFMVKPEEPFQPVKEATQL
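Also: Bxb1 expression induced with 0.2% (w/v) L-rhamnose at OD600 near 0.5, cultures sampled hourly, flipped fraction per protease–substrate barcode pair counted by paired-end Illumina sequencing.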

The assay covers variants of B1. Nature of the assay: raw area under fraction-flipped curve 0-4 h after induction (AUC4h, not background-subtracted), DNA-recorder readout of cleavage of the substrate (dimensionless); higher = more cleavage of the substrate by the protease variant. The following applies: temperature: 34 °C; time window: 0-4 h after rhamnose induction.
With MGESLFKGPRDYNPISSSICHLTNESDGHTTSLYGIGFGPFIITNKHLFRRNNGTLVVQSLHGVFKVKDTTTLQQHLVDGRDMIIIEMPKDFPPFPQKLKFREPQREERICLVTTNFQTKSMSSMVSDTSCTFPSGDGIFWKHWIQTKDGQCGSPLVSTRDGFIVGIHSASNFTNTNNYFTSVPKNFMELLTNQEAQQWVSGWRLNADSVLWGGHKVFMVKPEEPFQPVKEATQL [R87E], the “area with substrate ENEYFQS” value was 0.0615, the “area with substrate ENHYFQS” value stood at 0.0483, the “area with substrate ENKYFQS” value came out at 0.062 and the “area with substrate ENRYFQS” value is 0.0554. Besides, the “area with substrate ENTYFQS” value came to 0.0488 and the “area with substrate ENVYFQS” value was found to be 0.0813.

Take MGESLFKGPRDYNPISSSICHLTNESDGHTTSLYGIGFGPFIITNKHLFRRNNGTLVVQSLHGVFKVKDTTTLQQHLVDGRDMIIIRMPKDFPPFPQKLKFREPQREERICLVTTNFQTKSMSSMVSDTSLTFPSGDGIFWKHWIQTKDGQCGSPLVSTRDGFIVGIHSASNFTNTNNYFTSVPKNFMELLTNQEAQQWVSGWRLNADSVLWGGHKVFMVKPEEPFQPVKEATQL [C131L]: the “area with substrate ENEYFQS” value is 0.0592 and the “area with substrate ENMYFQS” value was 0.0593.

As for MGESLFKGPRDYNPISSSICHLTNESDGHTTSLYGIGFGPFIITNKHLFRRNNGTLVVQSLHGVFKVKDTTTLQQHLVDGRDMIIIRMPKDFPPFPQKLKFREPQREERICLVTTNFQTKSMSSMVSDTSCTFPSGDGIFWKHWIQTKDGQCGSPLVSTRDGFIVGIHSASNFTNTNNYFTSVPKNFMELLTNQEAQQWVSGWRLNAASVLWGGHKVFMVKPEEPFQPVKEATQL [D208A], the “area with substrate ENDYFQS” value turned out to be 0.0598 and the “area with substrate ENFYFQS” value was found to be 0.0761.

Take MGESLFKGPRDYNPISSSICHLTNESDGHTTSLYGIGFGPFIITNKHLFRRNNGTLVVQSLHGVFKVKDTTTLQQHLVDGRDMIIIRMPKDFPPFPQKLKFREPQREERICLVTTNFQTKSMSSMVSDTSCTFPSGDGIFWKHWIQTKDGQCGSPLCSTRDGFIVGIHSASNFTNTNNYFTSVPKNFMELLTNQEAQQWVSGWRLNADSVLWGGHKVFMVKPEEPFQPVKEATQL [V157C]: the “area with substrate ENEYFQS” value was 0.0675, the “area with substrate ENFYFQS” value worked out at 0.0545, the “area with substrate ENGYFQS” value is 0.0555 and the “area with substrate ENHYFQS” value came out at 0.0454. For the same variant, the “area with substrate ENMYFQS” value is 0.0599, the “area with substrate ENQYFQS” value was 0.0634 and the “area with substrate ENRYFQS” value is 0.0563.

With MGESLFKGPRDYNPISSSICHLTNESDGHTTSLYGIGFGPFIITNKHLFRRNNGTLVVQSLHGVFKVKDTTTLQQHLVDGRDMIIIRMPKDFPPFPQKLKFREPQREERICLVTTNFQTKSMSSMVSDTSCTFPSGDGIFWKHWIQTKDGQCGSPLVSTRDGFIVGIHSASNFTNTNNYFTSVPKNFMELLTNQEAQQWVSGWRLNADSVLWGGTKVFMVKPEEPFQPVKEATQL [H215T], the “area with substrate ENDYFQS” value worked out at 0.0575, the “area with substrate ENEYFQS” value was 0.0557, the “area with substrate ENGYFQS” value amounted to 0.0594 and the “area with substrate ENHYFQS” value amounted to 0.0595. Also, the “area with substrate ENNYFQS” value stood at 0.0689, the “area with substrate ENTYFQS” value came out at 0.0678 and the “area with substrate ENVYFQS” value was determined as 0.0657.

MGESLFKGPRDYNPISSSICHLTNESDGHTTSLYGIGFGPFIITNKHLFRRNNGTLVVQSLHGVFKVKDTTTLQQHLVDGRDMIIIRMPKDFPPFPQKLKFREPQREERICLVTTNFQTKSMSSMVSDTSCTFPSGDGIFWKHWIQTKDGQCGSPLVSTRDGFIVGIHSASNFTNTNNYFTSVPKNFMELLTNQEAQQWVSGWRLNADSVLWGGHKVCMVKPEEPFQPVKEATQL [F218C]: the “area with substrate ENDYFQS” value came out at 0.0533, the “area with substrate ENFYFQS” value was found to be 0.0673, the “area with substrate ENGYFQS” value turned out to be 0.0656 and the “area with substrate ENHYFQS” value was 0.0636. The “area with substrate ENIYFQS” value amounted to 0.0962, the “area with substrate ENKYFQS” value is 0.0816, the “area with substrate ENMYFQS” value turned out to be 0.0712 and the “area with substrate ENNYFQS” value amounted to 0.0608. Moreover, the “area with substrate ENPYFQS” value stood at 0.0553, the “area with substrate ENQYFQS” value is 0.0331, the “area with substrate ENTYFQS” value was 0.0376 and the “area with substrate ENWYFQS” value was 0.0534.

Consider MGESLFKGPRDYNPISSSICHLTNESDGHTTSLYGIGFGPFIITNKHLFRRNNGTLVVQSLHGVFKVKDTTTLQQHLVDGRDMIIIRMPKDFPPFPQKLKFREPQREERICLVTTNFQTKSMSSMVSDTSCTFPSGDGIFWKHWIQTKDGQCGSPLVSTRDGFIVGIHSASNFTNTNNYFTSVPKNFMELLTNQEAQQWVSGWRLNADSVLWGGHKVFMVKPEEPFQPVKEAAQL [T233A], for which the “area with substrate ENDYFQS” value was 0.0445, the “area with substrate ENFYFQS” value was 0.0731, the “area with substrate ENGYFQS” value was 0.0656 and the “area with substrate ENHYFQS” value was found to be 0.0615. Besides, the “area with substrate ENMYFQS” value turned out to be 0.0811 and the “area with substrate ENQYFQS” value came to 0.0643.

On to MGESLFKGPRDYNPISSSICHLTNESDGHTTSLYGIGFGPFIITNKHLFRRNNGTLVVQSLHGVFKVKDTTTLQQHLVDGRDMIIIRMPKDFPPFPQKLKFREPQREERICLVTTNFQTKSMSSMVSDTSCTFPSGDGIFWKHWIQTKDGQCGSPLVSTRDGFIVGIHSASNFTNTNNYFTSVPKNFMELLTNQEAQQWVSGWRLNADSVLWGGHKVFMVKPEEPFQPVKEAVQL [T233V], for which the “area with substrate ENDYFQS” value turned out to be 0.0746, the “area with substrate ENFYFQS” value was 0.0593, the “area with substrate ENGYFQS” value turned out to be 0.0594 and the “area with substrate ENQYFQS” value amounted to 0.0526. The “area with substrate ENSYFQS” value amounted to 0.0693, the “area with substrate ENVYFQS” value turned out to be 0.0803 and the “area with substrate ENWYFQS” value was found to be 0.0076.

For the variant MGESLFKGPRDYNPISSSICHLTNESDGHTTSLYGIGFGPFIITNKHLFRRNNGTLVVQSLHGVFKVKDTTTLQQHLVDGRDMIIIRMPKDFPPFPQKLKFREPQREERICLVTTNFQTKSMSSMVSDTSCTFPSGDGIFWKHWIQTKDGQCGSPLVSTRDGFIVGIHSASNFTNTNNYFTSVPKNFMELLTNQEAQQWVSGWRLNADSVLWGGHKVFMVKPEEPFQPVKEAFQL [T233F], the “area with substrate ENDYFQS” value is 0.061, the “area with substrate ENEYFQS” value turned out to be 0.0612, the “area with substrate ENFYFQS” value worked out at 0.0717 and the “area with substrate ENGYFQS” value was found to be 0.066. Further, the “area with substrate ENHYFQS” value was 0.0613, the “area with substrate ENIYFQS” value was found to be 0.0949, the “area with substrate ENMYFQS” value stood at 0.0937 and the “area with substrate ENQYFQS” value turned out to be 0.0657. Besides, the “area with substrate ENRYFQS” value was 0.0668, the “area with substrate ENSYFQS” value came to 0.089, the “area with substrate ENVYFQS” value turned out to be 0.0691 and the “area with substrate ENYYFQS” value was 0.059.

Take MGESLFKGPRDYNPISSSICHLTNESDGHTTSLYGIGFGPFIITNKHLFRRNNGTLVVQSLHGVFKVKDTTTLQQHLVDGRDMIIIRMPKDFPPFPQKLKFREPQREERICLVTTNFQTKSMSSMVSDTSCTFPSGDGIFWKHWIQTKDGQCGSPLVSTRDGFIVGIHSASNFTNTNNYFTSVPRNFMELLTNQEAQQWVSGWRLNADSVLWGGHKVFMVKPEEPFQPVKEATQL [K185R]: the “area with substrate ENEYFQS” value is 0.0577, the “area with substrate ENGYFQS” value came out at 0.0541, the “area with substrate ENHYFQS” value was found to be 0.0646 and the “area with substrate ENIYFQS” value stood at 0.0881. The “area with substrate ENNYFQS” value amounted to 0.0554, the “area with substrate ENQYFQS” value turned out to be 0.0598, the “area with substrate ENTYFQS” value amounted to 0.0635 and the “area with substrate ENYYFQS” value stood at 0.0463.
